Source: PubChem BioAssay AID651568 (National Center for Advancing Translational Sciences (NCATS), 2012)
About 55 (5%) of roughly 1,200 compounds were called active. Another 15% or so got no clear call; they are omitted. Calls come from the whole dose curve; as a rule, active = well fitted inhibition curve with a large enough effect; inconclusive = small, poorly fitted or top-dose-only effect; inactive = no such curve, though single readings can be large or run the other way. This is one part of the list.

experiment: qHTS Assay to Find Inhibitors of Chronic Active B-Cell Receptor Signaling: Hit Validation in Renilla Reporter Assay; settings: TMD8 IkB-Renilla luciferase reporter, NF-kB signaling; series mostly up to 57.5 µM; activity change, negative = inhibition: at the top concentration; note: nearly all actives have a fitted effect of over 70% in size
Outline: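 Dual-Glo luminescence read-out of constitutively expressed IkB-Photinus/Renilla luciferase reporters in ABC-DLBCL lines, used to retest primary hits; reporter enzymes differ from the click beetle luciferases used in the primary screen.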
% is set by controls: 0 for no effect and ±100 for the full control effect; potency is the fitted concentration of half-maximal effect.

Activity change, negative = inhibition, inactive:
CCC(NC(=O)CCc1c(C)c2cc3c4c(oc3cc2oc1=O)CCCC4)C(=O)O (centres undefined) -10.2%, CCCC1=Nc2cc(C(=O)NCCCOC(C)C)ccc2Sc2ccccc21 -14.5%, O=c1cc(-c2cccc(F)c2)[nH]c2ccccc12 -11%, Oc1[nH]c(N=C2N=c3ccccc3=N2)c2ccccc12 24.7%, COC(=O)C1=C(C)NC(C)=C(C(=O)OC)C1/C=C/c1ccccc1 22.2%, COc1ccc(C(=O)Nc2ccc(-n3nncc3-c3ccc(OC)c(OC)c3)cc2)cc1 -26.9%, CCOc1ccc(N(CC(=O)Nc2ccccc2C)S(=O)(=O)c2c(C)noc2C)cc1 0.105%, Fc1ccc(/C=N/NC2=Nc3cccc4cccc2c34)cc1 -28.2%, CCCCC[C@H](O)/C=C/C1=C(CCCCCCC(=O)O)C(=O)CC1 -22.6%, Cc1ccc(C(=O)c2cc([N+](=O)[O-])ccc2N2CCCCC2)cc1 0.979%, COc1ccc(C(=O)/C=C2/c3ccccc3CC(C)(C)N2C)cc1 -1.53%, CC(=O)N1CC(=O)N=C1SCC(=O)Nc1nc(C)c(-c2ccccc2)s1 11.2%, COC(=O)C1C(O)=C(C=Nc2cccc3ccccc23)C(=O)CC1(C)C (centres undefined) -12.3%, Cc1cc(C)c2ccc(/C=N/O)nc2c1O -15.7%, Cc1ccc2[nH]c(-c3cccc(F)c3)cc(=O)c2c1 -13%, O=C(OCC(O)CO)c1ccccc1Nc1ccnc2cc(Cl)ccc12 (centres undefined) -3.28%, CCN(CC)S(=O)(=O)c1ccc(N/N=C(\C)c2ccc(OC)cc2O)nc1 -1.31%, CCc1ccccc1NC(=S)N=Nc1c(O)n(C)c2ccc(S(=O)(=O)N3CCOCC3)cc12 -19.7%, Cc1ccc(C2OCC3(CO)COC(c4ccc(C)cc4)N23)cc1 (centres undefined) -6.71%, COc1cc2c(cc1OC)-c1cc(Nc3ccccc3)nc(=O)n1CC2 -2.28%, CC(=O)Nc1ccc(S(=O)(=O)N2CCSc3ccccc32)cc1 1.07%, NC(=S)N=Nc1c(O)n(CCCl)c2ccccc12 -3.64%, CCC(=O)NCc1cc(-c2nn(C)c(=O)c3ccccc23)ccc1OC 4.27%, COc1ccc(/C=N/Nc2nccnc2Cl)c(OC)c1 -1.46%, Cc1cccc(OCCCN2C(=O)C(=O)c3cc(C)ccc32)c1 -16.7%, O=C(Nc1nnc(SCc2ccc(F)cc2)s1)c1ccccn1 -28.1%, Cc1ccsc1/C=N/NC(=O)c1cc(-c2ccncc2)nc2ccccc12 -18.9%, O=C(NN=C1CCCC1)c1n[nH]c2c1CCCC2 0.76%, Cc1cc(NC(=O)CSc2nc3ccccc3c(=O)n2C2CCCC2)no1 1.51%, Cc1ccc(C2=NN(C(=O)CSc3nc(N)cc(N)n3)C(c3ccco3)C2)cc1 (centres undefined) -19.1%, OC[C@H]1O[C@@H](n2cnc3c(NC4CCCC4)ncnc32)[C@H](O)[C@@H]1O -9.34%, COc1cc2c(cc1OC)-c1cc(Nc3ccc(N(C)C)cc3)nc(=O)n1CC2 -16.6%, Oc1ccccc1N=Nc1ccccc1O -23.5%, COC(=O)Nc1nc2ccc(Sc3ccccc3)cc2[nH]1 -2.08%, CCn1ncc(C2=NOC(C(=O)NCc3ccccc3)C2)c1C (centres undefined) -18.4%, Cc1c(CCC(=O)N2CCC[C@H]2C(=O)O)c(=O)oc2cc3oc4c(c3cc12)CCCC4 -7.75%, O=C(c1ccc(Br)cc1)c1cc([N+](=O)[O-])ccc1N1CCCCC1 6.09%, COc1cc(OC)c2c(-c3cccc(-c4ccc(N(C)C)cc4)c3)cc(=O)oc2c1 -4.65%, COc1ccc(C(=O)N2CCc3cc(OC)c(OC)cc3C2c2ccc(OC)c(OC)c2)cc1 (centres undefined) -0.384%, CC(/C=C/c1ccccc1)=N\NC(=S)NC(C)C -10.7%, Cc1ccc2c(c1)C(=O)C(=O)N2CC1COc2ccccc2O1 (centres undefined) -20.1%, COc1ccccc1N1CCN(C(=O)c2cc(=O)c3cc(C)cc(C)c3o2)CC1 3.23%, O=c1cc(-c2ccccc2)[nH]c2ccc(F)cc12 0.24%, NC(=S)Nc1nc2ccccc2s1 1.39%, CC(C)CCOc1ccc(CO[C@@H]2[C@H]3OC(C)(C)O[C@H]3O[C@@H]2C(O)CO)cc1 (some centres undefined) -0.07%, COc1ccc(S(=O)(=O)N2c3ccccc3OCC2C)cc1 (centres undefined) 4.32%, O=C1N[C@H]2CC=C[C@H]2Nc2ccccc21 4.87%, COc1ccc(CCNc2oc(-c3ccc(OC)c(OC)c3)nc2P(=O)(OC)OC)cc1OC 3.74%, Cc1c(CCC(=O)NCCC(=O)O)c(=O)oc2c(C)c3oc4c(c3cc12)CCCC4 -15.5%, COc1ccc(NC(=O)C(=O)NCC2CCCN2S(=O)(=O)c2ccc(C)cc2)cc1 (centres undefined) 6.31%, COc1ccc(C(C)=O)cc1COC(=O)c1ccc(N)c([N+](=O)[O-])c1 6.27%, CCOC(=O)c1c(C=O)c2sc(C)cc2n1C -0.0596%, CN1CCN(Cc2cc(COCc3ccccc3)c3cccnc3c2O)CC1 -23.3%, COc1ccc(NC(=O)CSc2nc(N)c(C(=O)Nc3ccc(N(C)C)cc3)s2)cc1 -1.11%, Cc1ccc(CCC(=O)Nc2ncc(Cc3cc(Cl)ccc3Cl)s2)o1 -15.7%, CCOc1ncccc1C(=O)N1CCN(c2cc(Cl)ccc2C)CC1 -5.04%, Cc1nc(NC(=O)c2cnccn2)ccc1Br -7.88%, CC(=O)[C@H]1CC[C@H]2[C@@H]3CCC4=CC(=O)CC[C@]4(C)[C@H]3CC[C@]12C -12.9%, Cc1c(CCC(=O)N[C@@H](CC(C)C)C(=O)O)c(=O)oc2cc3oc4c(c3cc12)CCCC4 1.51%, C=CCc1ccc(OCCOc2ccc(/C=N/n3cnnc3)cc2OCC)c(OC)c1 -11.4%, CNc1nc2c(N)ncnc2n1[C@H]1O[C@@H](CO)[C@H](O)[C@@H]1O 18.6%, CCN1C(=O)C(O)(C2COC(C)(C)CC2=O)c2cc(Br)ccc21 (centres undefined) -3.6%, Fc1ccc(NC(=S)N/N=C/c2ccc(F)c(F)c2)cc1 2.41%, COc1ccc(C2=Nn3c(nnc3C3CCCCC3)SC2)cc1OC 5.07%, COCCCNC(=O)C(=O)Nc1ccc2c(c1)N(S(=O)(=O)c1cccs1)CCC2 -3.29%

Potency, active:
CCCc1nc([N+](=O)[O-])c(S(=O)(=O)c2ccccc2)n1CC(C)C 30.1 µM, N=C1SCC(=O)N1c1ncc(Cc2ccccc2Cl)s1 8.49 µM, CCOC(=O)C1CCN(S(=O)(=O)c2c(Cl)ccc3nonc23)CC1 3.01 µM, Cc1ccc(C(=O)Sc2cccccc2=O)cc1 6.75 µM
